First the molecules themselves.
B1: CPEB3 Ribozyme (parent)
chain: UAACAGGGGGCCACAGCAGAAGCGUUCACGUCGCAGCCCCUGUCAGAUUCUGGUGAAUCUGCGAAUUCUGCUGUAUAUCUC

The source gives no read counts; variants with many changes may rest on few reads.

Data on 34 variants can be found in the RNAGym collection of RNA variant scans (doi:10.1093/nar/gkz1192).

The series covers variants of B1. The experiment in a line: self-cleavage, relative activity (ratio to wild type); higher = more cleavage; in vitro, sequencing. The gist of the method: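 For each CPEB3 ribozyme variant, relative activity is its cleaved/total read fraction divided by the unmutated ribozyme's. Barcoded error-prone PCR libraries were transcribed by T7 RNA polymerase (5 hours, 37°C) and held in DNase I for 15 min before an EDTA stop, with cleavage occurring throughout. Template-switching reverse transcription and Illumina sequencing were used to read the RNAs. A 5-read minimum applied, and results are the mean of three batches.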
On to UAACAGGGGGCCACAGCAGAAACGUCCACGUCGAAGCCCCUGCCGGAUUCUGGUGAAUCUGCGAAUUCUGCUGUAUAUCUC [G22A U26C C34A U43C A45G], for which the self-cleavage worked out at 0.21.
To UAACAGGGGGCCACAGCAGAAACGCUCACGUCGCAGCCCCUGUCAGAUUCUGGUGACUCUGCGAGUUCUGCUGUAUAUCUC [G22A U25C A57C A65G] belongs 0.08.
With UAACAGGGGGCCACAGCAGAAACGUUCACGUCGCAGCCCCUGUCAGAUUCCGGUGAAUCCGCGAACUCUGCCGUAUAUCUC [G22A U51C U60C U66C U72C] the figure was 0.12; with UAACAGGGGGCCACAGCAGAAACGUUCACGUCGCUGCCCCUGUCAGAUUCUGGUGGGUCUGCGAAUUCUGCUGUAUAUCUC [G22A A35U A56G A57G], 0.06; with UAACAGGGGGCCACAGCAGAAACGUUCACGUCGCAGCCCCCGUCAGAUUCUGGUGAAUCCGCGAAUUCUGCUGUAUAUCUC [G22A U41C U60C], 0.36.
With UAACAGGGGGCCACAGCAGAAACGUUCACGUCGCAGCCCCUACCAGAUUCUGGUGAAUCUGCGAAUUCUGCUGUGUAUCUC [G22A G42A U43C A75G] the figure was 0.15; with UAACAGGGGGCCACAGCAGAACCGUUCACGUCGCAGCCCCUGUCAGAUUCUGGUGGAUCCGCGAAUUCUGCUGUACAUCUC [G22C A56G U60C U76C], 0.07.
As for UAACAGGGGGCCACAGCAGAACCGUACACGUCGCAGCCCCUGUCAGAUUCCGGUGAAUCUGCGAAUUCUGCUGAAUAUCUC [G22C U26A U51C U74A], the self-cleavage amounted to 0.19.
As to UAACAGGGGGCCACAGCAGAAACGUUCACGUCGCAGCCCCUGUCAGGUUCUGGUGGAUCUGCGAAUUCUGCUGUAUAUGUC [G22A A47G A56G C79G], the self-cleavage worked out at 0.05.
On to UAACAGGGGGCCACAGCAGAAACGUUCACGUAGCAGCCCCUGUCAGAUUCUGGUGAAUCUGCGAACUCUGCUGUAUAUCUC [G22A C32A U66C], for which the self-cleavage worked out at 0.29.
To UAACAGGGGGCCACAGCAGAAACGCUCUCGUCGCAGCCCCCGUCAGAUUCUGGUGAAUCUGCGAAUUCUGCUGUAUAUCUC [G22A U25C A28U U41C] belongs 0.07; to UAACAGGGGGCCACAGCAGAAACGUUCACGUCGCAGCCCCCGUCAGAUUCUGGUGAAUCUGCGUAUUCUGCUGUAUAUCUC [G22A U41C A64U], 0.15; to UAACAGGGGGCCACAGCAGAAACAUCCACGUCGCAGCCCCUGCCGGAUUCUGGUGAAUCUGCGAAUUCUGCUGUAUAUCUC [G22A G24A U26C U43C A45G], 0.16.
To UAACAGGGGGCCACAGCAGAACCGUUCACGUCGCAGCCCCUGACAGGUUCUGGUGAAUCUGCGAAUUCUGCUGUAUAUCUC [G22C U43A A47G] belongs 0.22.
With UAACAGGGGGCCACAGCAGAAACGUUCACGUCGCAGCCCCGGUCAGAUUCUGGUGGACCUGCGAAUUCCGCCGUAUAUCCC [G22A U41G A56G U58C U69C U72C U80C] the figure was 0.08.
On to UAACAGGGGGCCACAGCAGAAACGUUCACGUCGCAGCCCCUGUCUGAUUCUGGUGAAUCUGCGAAUUCUGCUGUAUAUCAC [G22A A45U U80A], for which the self-cleavage is 0.08.
To UAACAGGGGGCCACAGCAGAACCGUUCACGUCGCAGCCCCUGUUAGAUUCUGGUGAAUCUGCGUAUUCUGCUGUAUAUCUC [G22C C44U A64U] belongs 0.14; to UAACAGGGGGCCACAGCAGAAACGCUCUCAUCGCAGCCCCCGUCAGAUUCUGGUGAAUCUGCGAAUUCUGCUGUAUAUCAC [G22A U25C A28U G30A U41C U80A], 0.07; to UAACAGGGGGCCACAGCAGAACCGUACACGUCGCAGCCCCUGUCAGAUUCUGGUGAAGCUGCGAAUUCUGCUGUAUAUCUC [G22C U26A U58G], 0.19.
With UAACAGGGGGCCACAGCAGAAUCGUUCACGUCGCCGCCCCUGUCGGAUUCUGGUGAAUCUGGGAAUUCUGCUGUAUACCCC [G22U A35C A45G C62G U78C U80C] the figure was 0.06; with UAACAGGGGGCCACAGCAGAAACGUCCACGUCGCAGCCCCUGUCAGAUUCUGGUGGAUCUGCGAGUUCUGCUGUAUAACUC [G22A U26C A56G A65G U78A], 0.06; with UAACAGGGGGCCACAGCAGAAACGUUCACGACGCAGCCCCUGUCAGAUUCUGGUGAAUCUGCGAAUCCUGCUGUAUAUCUC [G22A U31A U67C], 0.13.
Regarding UAACAGGGGGCCACAGCAGAAACGUUCACGUCGCAGCCCCUGUCAGAUUCUGGUGGAUCAGCGAAUUCUGCUAUAUAUCUC [G22A A56G U60A G73A], the self-cleavage was determined as 0.08.
With UAACAGGGGGCCACAGCAGAAACGUUCACGUCGCAGCCCCUGUCAGAUCCUGGUGAAUCUGCGAACUCUGCUGUAUAUCUC [G22A U49C U66C] the figure was 0.23.
As to UAACAGGGGGCCACAGCAGAAACGUUCACGUCGCAGCCCCUACCAGAUUCUGGUGAAUCAGCGAAUUCUGCUGUAUAUCAC [G22A G42A U43C U60A U80A], the self-cleavage worked out at 0.16.
To UAACAGGGGGCCACAGCAGAAACGAUCACGUCGCAGCCCCUGUCGGAUUCUGGUGGAUCUGCGAAUUCUGCUGUAUAACUC [G22A U25A A45G A56G U78A] belongs 0.22; to UAACAGGGGGCCACAGCAGAAACGUUCACGUCGCAGCCCCUGUCAGAUUCUGGUGAAUCAGCAAAUUCUGCUGUAUAUCUC [G22A U60A G63A], 0.39.
To UAACAGGGGGCCACAGCAGAACCGUUCGCGUCGCAGCCCCUGUCAGAUCCUGGUGAAUCUGCGAAUUCUGCUGUAUAUCUC [G22C A28G U49C] belongs 0.07.
With UAACAGGGGGCCACAGCAGAACCGUUCACGUCGCGGCCCCUGUCAGAUUCUGGUGAAUCUGAGGAUUCUGCUGUAUAUCUC [G22C A35G C62A A64G] the figure was 0.29; with UAACAGGGGGCCACAGCAGAAACGAUCACGCCGCAGCCCCUGUCAGAUUCUGGUGAGUCUGCGAAUUCUGCUGUAUAUCUC [G22A U25A U31C A57G], 0.16.
Consider UAACAGGGGGCCACAGCAGAAACGUUCACGUCGCAGCCCCCGUCAGAUCCUGGUGAAUCUGCGAAUUCCGCUGUAUAUCUC [G22A U41C U49C U69C], for which the self-cleavage was 0.06.
To UAACAGGGGGCCACAGCAGAACCGUACACGUCGCAGCCCCUGUCAGAUUCUGGUGAACCUGCGAAUUCUGCCGUAUAUCUC [G22C U26A U58C U72C] belongs 0.12; to UAACAGGGGGCCACAGCAGAACCGUUCACGUCGCAGCCCCUGUCAGGUUCUGGUGAAUCUGCGAAUUCAGCUGUAUUUCUC [G22C A47G U69A A77U], 0.25.
To UAACAGGGGGCCACAGCAGAAACGUUCACGCCGCAGCCCCUGUCAGAUUCUGGUGUAUCUGCGAAUUCUGCUGUAUAUCUC [G22A U31C A56U] belongs 0.12.
